Laboratory results: the supplement of paper PMC12355420
Structures can show the parent of a compound that is named as a salt. This is one part of the list. Single values are uncertain, as repeats are few or missing.

system: HeLa VPS33A reporter cells; test: relative cell viability (CellMask signal) vs DMSO (fraction of DMSO); HeLa model of a glycosaminoglycan (GAG) storage disease; KI is knock-in and KO knock-out; SDC1 is syndecan 1; higher = less cytotoxic; conditions: 50 µM; 24 h
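Note: primary screen of an FDA-approved drug library in HeLa reporter cells in 96-well format, CellMask signal normalized to DMSO-treated wells set as 1, under 0.5 deemed highly cytotoxic.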

Structure (SMILES)	relative cell viability
CCC1=C[C@@H]2CN(C1)Cc1c([nH]c3ccccc13)[C@@](C(=O)OC)(c1cc3c(cc1OC)N(C)[C@H]1[C@@](O)(C(=O)OC)[C@H](OC(C)=O)[C@]4(CC)C=CCN5CC[C@]31[C@@H]54)C2 [Vinorelbine]	0.00418
CC(=O)OC(C)C(C)C(=O)OCC12C3CC(C)(C)[C@H](O[C@@H]1C[C@]1(C)C3=CCC3C4(C)CCC(O[C@@H]5O[C@H](C(=O)O)[C@@H](O[C@H]6O[C@H](CO)[C@@H](O)[C@H](O)[C@H]6O)[C@H](O)[C@H]5O[C@@H]5OC[C@@H](O)[C@H](O)[C@H]5O)[C@](C)(CO)C4CCC31C)C2O (some centres undefined) [Sodium Aescinate]	0.00488
CCCCCCCCCCCC[N+](C)(C)CCOc1ccccc1 [Domiphen Bromide]	0.00555
COc1cc2c3cc1Oc1c(OC)c(OC)cc4c1[C@@H](Cc1ccc(O)c(c1)Oc1ccc(cc1)C[C@@H]3N(C)CC2)N(C)CC4 [Berbamine hydrochloride]	0.0281
COCCCC/C(=N\OCCN)c1ccc(C(F)(F)F)cc1 [Fluvoxamine maleate]	0.00277
CN1CCN(c2ccc(C(=O)Nc3n[nH]c4ccc(Cc5cc(F)cc(F)c5)cc34)c(NC3CCOCC3)c2)CC1 [Entrectinib]	0.0124
Cc1cc(Nc2ncc(Cl)c(Nc3ccccc3S(=O)(=O)C(C)C)n2)c(OC(C)C)cc1C1CCNCC1	0.00483
Cc1cncc(CN2CCC(=C3c4ccc(Cl)cc4CCc4cccnc43)CC2)c1 [Rupatadine Fumarate]	0.0135
C[C@@H](Oc1cc(-c2cnn(C3CCNCC3)c2)cnc1N)c1c(Cl)ccc(F)c1Cl [(R)-Crizotinib]	0.00374
